Laboratory results reported in PMC12040169 (PLOS Biology, 2025).
Some of the results follow.

The compounds below were run on T1, C. trachomatis L2/434/Bu expressing GFP (CTL2-GFP). Details: total inclusion area; 28.5 h, 10 µM; inhibitor.
T1 construct: L2/434/Bu GFP intracellular growth in HeLa cells
Parameters: species or system HeLa; C. trachomatis total inclusion area by high-content imaging, normalised to DMSO
In short: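 Bulk GFP and resorufin signals were read first. Wells were then fixed, stained with Hoechst and imaged to detect GFP inclusions and host nuclei. MICs followed the previously described calculation.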

Structure (SMILES) | % of control remaining
COc1ccc([C@@]23CC[C@@H](NC(=O)Nc4c(F)ccc(F)c4Cl)C[C@@H]2N(C)CC3)cc1OC [CBK073769T] | 101.206
CCc1ocnc1C(=O)NC1CCCN(Cc2ccccc2F)C1 (stereo not drawn) [CBK306924] | 75.8481
Cc1ccccc1Nc1nc(CN2CCC3(CCCOC3)C2)cs1 (stereo not drawn) [CBK304255] | 58.9314
CCC(CC)(CC(=O)Nc1ccc2nc(C)sc2c1)C(=O)O [CBK297882] | 117.223
CCNc1cc2ccccc2c(-c2cc(C(C)C)ccc2OC)n1 [CBK073777] | 83.4932
NS(=O)(=O)c1ccc(CNC(=O)c2cc(-c3cccnc3)nc3ccc(Cl)cc23)cc1 [CBK267727] | 108.424
CCc1nc2ccc(C(=O)N(C)CCN(C)C)cn2c1N(C)Cc1nccs1 [CBK145474] | 125.75
CCC1CCCCN1CC(=O)N1CCCC1c1nc2ccccc2[nH]1 (stereo not drawn) [CBK282695] | 109.501
C[C@H](NC(=O)Cc1ccc(-c2ccccc2)cc1)c1nc2ccccc2[nH]1 [CBK296998] | 32.1222
O=C(NCc1ccccc1)c1ccc(NCc2ccccc2)c([N+](=O)[O-])c1 [CBK074547] | 65.2166
CCCc1oc(C(=O)O)cc1CN(CC)CC [CBK267943C] | 103.946
O=C(CCc1ccc(F)cc1)N1CCC(CC(=O)N2CCN(c3ccccc3)CC2)CC1 [CBK286245] | 85.7124
CC(C)(C)c1ccc(-c2nnc(SCC(=O)c3ccc(F)cc3)o2)cc1 [CBK067988] | 107.846
O=C(N[C@H]1CCN2C(=O)c3cc(-c4ccsc4)ccc3NC(=O)[C@H]12)c1cccc(F)c1 [CBK289339] | 100.782
Cc1ccc(C(=O)N2CCC(c3nn(C)c4ncccc34)CC2)s1 [CBK284988] | 82.6833
COCc1nc(C(=O)Nc2ccc(NC(C)=O)cc2C(F)(F)F)cs1 [CBK306298] | 64.3337
CNC(=S)Nc1ncn(Cc2cccc(F)c2)n1 [CBK288368] | 68.382
Nc1ccccc1C(=O)NCc1ccncc1 [CBK057024] | 82.1001
O=[N+]([O-])c1ccccc1OCCCn1c2ccccc2c2ccccc21 [CBK264799] | 99.7779
O=C(CCSc1ccc(Cl)cc1)NCCc1ccccc1 [CBK263800] | 109.306
COc1ccc2[nH]cc(CCNC(=O)/C=C/c3ccc(C(C)C)cc3)c2c1 [CBK149639] | 50.917
Cc1nn(C)cc1CN(Cc1ccc(F)cc1)CC1CCCO1 (stereo not drawn) [CBK282472] | 122.201
Clc1ccc(OCCOc2nccnc2N2CCNCC2)cn1 [CBK014049G] | 58.3469
COc1ccc([C@@]23CC[C@@H](NC(=O)c4ccc(-c5csnn5)cc4)C[C@@H]2N(C)CC3)cc1OC [CBK074256T] | 113.795
Cn1cc(C(=O)N2CCCC(c3cc4ccccc4cn3)C2)cn1 (stereo not drawn) [CBK285155] | 66.3916
COc1cccc2c3c([nH]c12)C1(CCN(CCc2scnc2C)CC1)NCC3 [CBK040058] | 74.4078

Structure (SMILES) | % of control remaining
Cc1ccc(COC(CN2CCCCCC2)CN2CCCCCC2)cc1 [CBK278236C] | 65.7658
COc1ccc(-c2cc(=O)[nH]c(SCC(=O)Nc3ccc(C)cc3)n2)cc1 [CBK091867] | 102.716
CC(=O)Nc1ccc(S(=O)(=O)Nc2cccc(-c3cn4cccnc4n3)c2)cc1 [CBK269125] | 91.1586
O=C1CC(Cl)Sc2sc3ccccc3c21 (stereo not drawn) [CBK006551] | 19.6914
COc1ccc([N+](=O)[O-])c(Sc2cccs2)n1 [CBK002625] | 94.6023
COc1cc(-c2cnc(N)c(N3CCC[C@@H]3CO)n2)cc(OC)c1OC [CBK063478] | 86.5249
O=C1N=C(Nc2cccc(C(=O)O)c2)S/C1=C/c1cccc(O)c1 [CBK264984] | 100.054
O=C(Cc1cccnc1)N1CCC(O)(c2cccc(F)c2)CC1 [CBK283537] | 83.6084
CC(=C\C(=O)O)/C(=C/c1ccncc1)C(=O)O [CBK278265N] | 81.7939
Cc1cnc2[nH]c(C3CCCN(C(=O)c4cccnc4)C3)cc2c1 (stereo not drawn) [CBK285168] | 90.981
O=C(Nc1ccc(F)cc1)c1cccc(NS(=O)(=O)c2cc(Cl)sc2Cl)c1 [CBK038980] | 87.8572
O=C(Nc1cc(Br)ccc1O)c1cnn2c(C(F)(F)F)cc(-c3cccs3)nc12 [CBK268190] | 90.3105
Cc1c(C(=O)Nc2ccncc2)nnn1-c1cccc(C(F)(F)F)c1 [CBK107390] | 57.5576
COc1ccc([C@@]23CC[C@@H](NC(=O)c4ccc(F)c(F)c4)C[C@@H]2CN(C)C3)cc1OC [CBK083504T] | 109.963
COc1cc(CNC2CCCCC2)ccc1OCC(N)=O [CBK263866] | 106.424
COc1cc(OC)c(NC(=O)C(C)Oc2cccc(C)c2)cc1Cl (stereo not drawn) [CBK268646] | 86.141
Cc1ccc(-c2nnc([C@H]3CCN(C(=O)NCc4ccccc4)C3)o2)cc1 [CBK289411] | 94.5166
COCOc1ccc(-c2nccnc2OC2CCCCC2)cc1 [CBK106917] | 107.578
CCCc1cc(C(=O)N2CCN(c3nccc(OC)n3)CC2)[nH]n1 [CBK304898] | 18.5877
O=c1oc2ccccc2c(NCCCN2CCOCC2)c1[N+](=O)[O-] [CBK261471] | 91.5627
Cc1cc(C)c2nc(-c3ccccn3)cc(C(=O)Nc3ccc(S(=O)(=O)Nc4cc(C)on4)cc3)c2c1 [CBK267779] | 107.655
CC1CN(C(=O)c2ccccc2)CC(C)N1CCCCc1ccc(F)cc1 (stereo not drawn) [CBK025019C] | 73.3552
CN(C)CCCn1cnc2c1c(=O)[nH]c(=O)n2C [CBK287913] | 83.1557
CN(C)Cc1ncccc1OCCO [CBK001411C] | 102.348
CCOC(=O)c1ccccc1NS(=O)(=O)Cc1ccccc1[N+](=O)[O-] [CBK050594] | 80.5247
